Experimental data reported in PubChem BioAssay AID588453 (National Center for Advancing Translational Sciences (NCATS), 2011).
Hit rate of the full screen: of about 390,000 compounds, about 4,000 (1%) were called active. This list was built around the results that the source calls inconclusive (neither active nor inactive); the mix of calls is not that of the screen. Calls come from the whole dose curve; as a rule, active = well fitted inhibition curve with a large enough effect; inconclusive = small, poorly fitted or top-dose-only effect; inactive = no such curve, though single readings can be large or run the other way. Where the call is inconclusive, the potency comes from a doubtful curve fit.

Target: Thioredoxin reductase 1, cytoplasmic (Rattus norvegicus) (UniProt O89049)
Sequence of UniProt O89049 (O89049 whole entry, looked up): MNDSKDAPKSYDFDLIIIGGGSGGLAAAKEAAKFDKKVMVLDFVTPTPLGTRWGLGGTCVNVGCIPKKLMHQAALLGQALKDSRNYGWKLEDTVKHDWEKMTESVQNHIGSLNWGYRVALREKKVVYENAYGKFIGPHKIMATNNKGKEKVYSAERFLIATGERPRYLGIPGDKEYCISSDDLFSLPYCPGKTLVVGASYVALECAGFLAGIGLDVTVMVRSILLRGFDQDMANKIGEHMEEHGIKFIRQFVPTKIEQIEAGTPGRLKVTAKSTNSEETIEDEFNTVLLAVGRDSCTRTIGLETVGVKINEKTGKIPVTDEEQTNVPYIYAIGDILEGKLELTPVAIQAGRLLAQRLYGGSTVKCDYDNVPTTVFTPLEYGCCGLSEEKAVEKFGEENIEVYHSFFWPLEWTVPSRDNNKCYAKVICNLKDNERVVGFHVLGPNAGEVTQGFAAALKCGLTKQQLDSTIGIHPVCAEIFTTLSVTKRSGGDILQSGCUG
Test: qHTS Assay for Inhibitors of Mammalian Selenoprotein Thioredoxin Reductase 1 (TrxR1): qHTS; note: nearly all actives have a fitted effect of over 65% in size
Details: recombinant rTrxR1, NADPH fluorescence consumption, selenite substrate; series mostly up to 114 µM
Summary of the method: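 Rat TrxR1 (90 nM in the dispensed reagent) was pre-reduced with 400 uM NADPH for 5 min at room temperature, then incubated with compound for 15 min. After 400 uM selenite was added, NADPH fluorescence (Ex 340/Em 450 nm) was followed for 8 min.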
Potency is the fitted concentration of half-maximal effect; tags give direction and shape of the fitted curve.

Row | Compound | Potency
1 | Nc1ncnc2c(C3OC(CO)C(O)C3O)scc12 (centres undefined) | inconclusive: 100 µM [inhibitor, single point]
2 | CN1CCc2c(sc3c2C(=O)NC(c2ccccn2)N3)C1 (centres undefined) | inconclusive: 89.1 µM [inhibitor, single point]
3 | COc1ccc([N+](=O)[O-])cc1NC(=O)C(C)OC(=O)/C=C/c1ccco1 (centres undefined) | inconclusive: 50.1 µM [inhibitor, partial curve, poor fit]
4 | O=C(Nc1cccc(C(F)(F)F)c1)N1CCC(CN2CCCCCC2)CC1 | inconclusive: 70.8 µM [inhibitor, partial curve, poor fit]
5 | CCOC(=O)c1cnc2c(cnn2CC)c1NN=C(C)C | inconclusive: 5.32 µM [inhibitor, partial curve, poor fit]
6 | COc1cccc(C(=O)OCC(=O)Nc2sc3c(c2C(N)=O)CCC3)c1O | inactive
7 | CCc1c(C)c2ccccc2[nH]c1=O | inactive
8 | CCN1CC=C2C(C1)C(c1ccc(Cl)s1)C(C#N)=C(N)C2(C#N)C#N (centres undefined) | inconclusive: 25.1 µM [inhibitor, full curve]
9 | N#Cc1ccc(OCC(=O)N(C2CCCCC2)C2CCS(=O)(=O)C2)cc1 (centres undefined) | inconclusive: 89.1 µM [inhibitor, single point]
10 | O=C(O)Cc1sc(N/N=C\c2ccccc2)nc1-c1ccccc1 | inconclusive: 15.8 µM [inhibitor, partial curve]
11 | CCCCN(CC)C(=O)C1CCCN(c2ncnc3c2nc2n3CCCCC2)C1 (centres undefined) | inactive
12 | COc1ccc(NC(=O)NCCn2nnc3cc(S(=O)(=O)N(C)C)ccc32)cc1 | inactive
13 | CCC(=O)c1ccc(OCC(=O)Nc2nn3cnnc3s2)cc1 | inconclusive: 70.8 µM [inhibitor, partial curve]
14 | Cc1ccc(Cn2cnc3sc4c(c3c2=O)CCC4)c(C)c1 | inconclusive: 3.16 µM [inhibitor, single point]
15 | Cc1ccc(NC(=O)CCc2ccccc2)cc1S(=O)(=O)N1CCOCC1 | inactive
16 | CCS(=O)(=O)C1=NSC2=NC(=O)/C(=C\c3ccc(OC(=O)c4ccco4)cc3)C(=N)N21 | inconclusive: 35.5 µM [inhibitor, partial curve]
17 | Cc1nc(CCNC(=O)CC2C(=O)NCCN2Cc2ccccc2)sc1C (centres undefined) | inconclusive: 79.4 µM [inhibitor, single point]
18 | CCOC(=O)c1cc(-c2ccccc2)sc1NC(=O)c1ccc(OC)cc1 | inactive
19 | O=C(O)c1ccc(CN2C(=O)c3cccc4c([N+](=O)[O-])ccc(c34)C2=O)cc1 | inconclusive: 39.8 µM [inhibitor, partial curve]
